Experimental data as given in patent publication US20240218024A1 (TECHNION RESEARCH AND DEVELOPMENT FOUNDATION, published 2024).

Target: his-tagged SARS-CoV-2 Spike receptor binding domain (RBD), expressed in the lab in 293F cells, coval (SARS-CoV-2)
Test: fluorescence microscopy, overlay of mCherry and FITC channels

B1: slncRNA-PP7bsx14-tdPP7-mCherry granules (other)
chain: MGSSHHHHHHSSGLVPRGSHMLASKTIVLSVGEATRTLTEIQSTADRQIFEEKVGPLVGRLRLTASLRQNGAKTAYRVNLKLDQADVVDSGLPKVRYTQVWSHDVTIVANSTEASRKSLYDLTKSLVATSQVEDLVVNLVPLGRADPLASKTIVLSVGEATRTLTEIQSTADRQIFEEKVGPLVGRLRLTASLRQNGAKTAYRVNLKLDQADVVDSGLPKVRYTQVWSHDVTIVANSTEASRKSLYDLTKSLVATSQVEDLVVNLVPLGRPPVA[not shown - about 250 residues]
binding result: no binding (tested: 842 nM protein, 112.8 nM slncRNA)
